{"source": "PubChem BioAssay AID1345082", "about": "(National Center for Advancing Translational Sciences (NCATS), 2018)", "note": "Out of some 94,000 compounds screened, about 4,000 (4.3%) were called active. Inconclusive means that the source gave no clear call. Such entries were picked first, then a sample of the others. Calls come from the whole dose curve; as a rule, active = well fitted inhibition curve with a large enough effect; inconclusive = small, poorly fitted or top-dose-only effect; inactive = no such curve, though single readings can be large or run the other way. Where the call is inconclusive, the potency comes from a doubtful curve fit. % is set by controls: 0 for no effect and ±100 for the full control effect; potency is the fitted concentration of half-maximal effect; tags give direction and shape of the fitted curve.", "data": [{"assay": "Cytotoxic Profiling in NIH 3T3 Cell Line of Diverse Libraries Using Quantitative High-Throughput Screening; note: nearly all actives have a fitted effect of over 55% in size", "conditions": "NIH 3T3 viability, CellTiter-Glo ATP luminescence, 48-72 h; activity change, negative = cytotoxicity: at 96.7 µM (top of the series); series mostly up to 96.7 µM", "how_it_was_run": "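NIH 3T3 cells at 400 cells/well received 23 nL of compound by pintool and were incubated 48 or 72 h at 37 °C. Viability was read as ATP-coupled CellTiter-Glo luminescence.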", "values": [{"molecule": "Cc1ccc(NC(=O)c2nc3sccn3c2-c2ccc(C(F)(F)F)cc2)cc1", "Potency": "inconclusive: 44.7 µM [inhibitor, partial curve, poor fit]"}, {"molecule": "COc1ccc(C(=O)N[C@H]2C[C@H]3C(=O)NC[C@@H](CCC(=O)NCc4ccccc4)N3C2)cc1", "activity change, negative = cytotoxicity": "inactive: -14.4%"}, {"molecule": "O=C1N(C2CCOCC2)CCCC12CCN(c1ccc(Cl)cn1)C2", "note": "(stereo not given)", "Potency": "inconclusive: 50.1 µM [inhibitor, partial curve, poor fit]"}, {"molecule": "COc1ccccc1OCCNC(=O)CCC1CCN(C(=O)c2ccccc2)CC1", "activity change, negative = cytotoxicity": "inactive: -7.98%"}, {"molecule": "O=C(NCc1cccc(Cl)c1)C1CCCN1C(=O)c1cccc(-c2cccnc2)c1", "note": "(stereo not given)", "Potency": "inconclusive: 35.5 µM [inhibitor, partial curve, poor fit]"}, {"molecule": "Cc1ccc(C)c([S+](=O)([O-])c2nnn3c2nc(NC2CCCC2)c2ccccc23)c1", "Potency": "inconclusive: 89.1 µM [inhibitor, partial curve, poor fit]"}, {"molecule": "CN1CCCCCCN(Cc2ccccc2)[C@H]2CCC[C@H]2C1=O", "activity change, negative = cytotoxicity": "inactive: -22.7%"}, {"molecule": "CN1C[C@@H](NC(=O)c2ccccn2)C[C@H]1c1nc(-c2ccc(Cl)cc2)no1", "Potency": "inconclusive: 89.1 µM [inhibitor, partial curve, poor fit]"}, {"molecule": "Cc1nnnn1CCCN1CCC2(CC1)CNC(C(=O)O)C2", "note": "(stereo not given)", "activity change, negative = cytotoxicity": "inactive: -1.86%"}, {"molecule": "CC(C)CN1CCC(O)(c2csc(CN3CCN(c4ccccn4)CC3)n2)CC1", "Potency": "inconclusive: 112 µM [inhibitor, single point]"}, {"molecule": "CCOC(=O)[C@@H]1CN(C(=O)c2ccc(-c3cccs3)s2)[C@H]2c3cccc(F)c3O[C@@H]12", "Potency": "inconclusive: 31.6 µM [inhibitor, partial curve, poor fit]"}, {"molecule": "Cc1cccc(CN2CCCC(c3nc(C(C)C)no3)CCNC(=O)CC2)c1", "note": "(stereo not given)", "Potency": "inconclusive: 50.1 µM [inhibitor, partial curve, poor fit]"}, {"molecule": "CC(C)C[C@@H]1N[C@H](C(=O)NC2CCC2)Cc2c[nH]c3cccc1c23", "Potency": "active: 50.1 µM"}, {"molecule": "COc1cc(OC)cc(C(=O)N2CCCC(c3noc(COc4ccccc4F)n3)C2)c1", "note": "(stereo not given)", "Potency": "inconclusive: 44.7 µM [inhibitor, partial curve, poor fit]"}, {"molecule": "Cc1cn2nc(C(=O)N3CCCC3)cc2c(=O)[nH]1", "outcome": "inactive"}, {"molecule": "Cc1cn2nc(C(=O)NC3CCCC3)cc2c(N2CCSCC2)n1", "Potency": "inconclusive: 50.1 µM [inhibitor, partial curve, poor fit]"}, {"molecule": "NC(=O)c1cc[nH]c1C1CCCN(C(=O)CCCc2nc3ccccc3s2)C1", "note": "(stereo not given)", "Potency": "inconclusive: 31.6 µM [inhibitor, partial curve]"}, {"molecule": "O=C(NC1CC1)c1ccc2nnc(-c3cc(C(F)(F)F)cc(C(F)(F)F)c3)n2c1", "Potency": "inconclusive: 56.2 µM [inhibitor, partial curve, poor fit]"}, {"molecule": "Cc1ccccc1C(=O)N1CCC(N2C(=O)c3c(c(C)nn3-c3ccccc3)C2C2CC2)CC1", "note": "(stereo not given)", "Potency": "inconclusive: 44.7 µM [inhibitor, partial curve, poor fit]"}, {"molecule": "COc1ccc(-c2noc(CC3CCN(C(=O)CCc4ccccc4)CC3)n2)cc1", "Potency": "inconclusive: 50.1 µM [inhibitor, partial curve, poor fit]"}, {"molecule": "O=[S+]([O-])(NC1CCN(c2ccnc3ccnn23)C1)c1ccccc1", "note": "(stereo not given)", "Potency": "inconclusive: 39.8 µM [inhibitor, partial curve, poor fit]"}, {"molecule": "CCOCCCNC(=O)C1CCN(Cc2ccccc2-c2ccccc2F)CC1", "activity change, negative = cytotoxicity": "inactive: -24.4%"}, {"molecule": "CCS(=O)(=O)N1CCc2c(c(CN3CCOCC3)nn2C)C1", "activity change, negative = cytotoxicity": "inactive: -24.3%"}, {"molecule": "COCC(=O)N1CC(C(=O)NC(C)c2ccccc2)CC(c2ccc(OC)c(OC)c2)C1", "note": "(stereo not given)", "outcome": "inactive"}, {"molecule": "CN(C)Cc1nnc(C2CCN(c3nnnn3-c3ccccc3)CC2)n1C", "activity change, negative = cytotoxicity": "inactive: -3.2%"}, {"molecule": "O=C(c1ccc(C(F)(F)F)cc1)N1CCC(C(=O)N2CCCC(c3nc4ncccc4[nH]3)C2)CC1", "note": "(stereo not given)", "activity change, negative = cytotoxicity": "inactive: -30.6%"}, {"molecule": "CCc1nccc(-c2c(-c3ccccc3)ncn2CC(O)c2ccccc2)n1", "note": "(stereo not given)", "Potency": "inconclusive: 89.1 µM [inhibitor, single point]"}, {"molecule": "CCOC(=O)c1sc(NC(=O)C2CC(=O)N(c3n[nH]c4ccccc34)C2)nc1C", "note": "(stereo not given)", "Potency": "inconclusive: 70.8 µM [inhibitor, single point]"}, {"molecule": "COC1CCC12CCN(C(=O)c1ccc3[nH]ccc3c1)CC2", "note": "(stereo not given)", "Potency": "inconclusive: 79.4 µM [inhibitor, single point]"}, {"molecule": "Cn1cc(CN2CCOc3cc([S+](=O)([O-])Nc4cccnc4)ccc3C2)cn1", "Potency": "active: 100 µM"}, {"molecule": "O=C(NCc1ccc(Cl)cc1)c1cn2cc(-c3ccc(F)cc3)sc2n1", "Potency": "inconclusive: 25.1 µM [inhibitor, full curve, poor fit]"}, {"molecule": "CN(Cc1ccc(F)cc1)C(=O)c1ccccc1Cl", "Potency": "inconclusive: 44.7 µM [inhibitor, partial curve]"}, {"molecule": "Fc1ccc(-c2cnc3n2C[C@H](CNCc2ccc4c(c2)OCO4)OC3)cc1", "Potency": "active: 89.1 µM"}, {"molecule": "COc1cccc(CNC(=O)c2ccc3nnc(-c4ccc(Cl)cc4)n3c2)c1", "Potency": "inconclusive: 50.1 µM [inhibitor, partial curve, poor fit]"}, {"molecule": "CCc1cnc(C)nc1N1CCC2(CC1)CC(c1ccccc1)C(=O)N2C", "note": "(stereo not given)", "Potency": "inconclusive: 50.1 µM [inhibitor, partial curve, poor fit]"}, {"molecule": "COCCN1C(=O)CCc2cc(NC(=O)c3ccc(C)cc3C)ccc21", "Potency": "inconclusive: 44.7 µM [inhibitor, partial curve, poor fit]"}, {"molecule": "O=C(NCc1ccc(F)cc1)c1cc(-c2cnccc2Cl)c2cccn2n1", "Potency": "inconclusive: 12.6 µM [inhibitor, full curve]"}, {"molecule": "O=C(c1nc(-c2ccc(Cl)cc2)c2ccccn12)N1CCN(c2ncccn2)CC1", "Potency": "inconclusive: 50.1 µM [inhibitor, partial curve, poor fit]"}, {"molecule": "COc1ccc(N2C(=O)CSC23CCN(C(=O)Nc2ccc(F)cc2F)CC3)cc1", "Potency": "inconclusive: 50.1 µM [inhibitor, partial curve, poor fit]"}, {"molecule": "CCc1nc2c(c(-c3ccc(OC)cc3)n1)CCN(C(=O)c1ccccc1F)CC2", "Potency": "active: 39.8 µM"}, {"molecule": "Cn1ncc2c(C(=O)NCc3cccc(Cl)c3)cc(-c3cccc(F)c3)nc21", "Potency": "inconclusive: 11.2 µM [inhibitor, full curve]"}, {"molecule": "Cc1ccc(-c2noc([C@@H]3CCCN3C(=O)c3ccc(C(C)(C)C)cc3)n2)cc1", "Potency": "inconclusive: 50.1 µM [inhibitor, partial curve, poor fit]"}, {"molecule": "CN(C)Cc1ccc(C2CCCN2Cc2cccc3nonc23)cc1", "note": "(stereo not given)", "activity change, negative = cytotoxicity": "inactive: -14.3%"}, {"molecule": "CCOc1cccc(CN2CCCC(COc3ccccc3C(=O)NC(C)C)C2)c1", "note": "(stereo not given)", "Potency": "inconclusive: 44.7 µM [inhibitor, partial curve, poor fit]"}, {"molecule": "CCOC(=O)c1cccc(NC(=O)c2cnc(-c3ccc(C)cc3)nc2-c2ccncc2)c1", "activity change, negative = cytotoxicity": "inactive: -16.2%"}, {"molecule": "COCCCn1c(=O)c(C(=O)N2CCN(C(=O)Cc3ccccn3)CC2)nc2cccnc21", "activity change, negative = cytotoxicity": "inactive: -2.94%"}, {"molecule": "Cc1ccc(C(=O)NC2CCN(c3ccc4nnc(C5CC5)n4n3)C2)cc1", "note": "(stereo not given)", "activity change, negative = cytotoxicity": "inactive: 2.53%"}, {"molecule": "COc1ccc(-c2ccccc2C(=O)NCCc2ccccc2)nn1", "activity change, negative = cytotoxicity": "inactive: -22%"}, {"molecule": "COc1ccc(-c2cc(N3CCCC(NC(=O)c4cc(OC)c(OC)c(OC)c4)C3)n[nH]2)cc1", "note": "(stereo not given)", "Potency": "inconclusive: 70.8 µM [inhibitor, single point]"}, {"molecule": "COCCN1C(=O)c2cccn2CC1CNC(=O)c1cc(F)ccc1F", "note": "(stereo not given)", "activity change, negative = cytotoxicity": "inactive: -7.54%"}, {"molecule": "CC(=O)NCC(=O)N1Cc2ccccc2CC2(CCN(CC3CCNCC3)CC2)C1", "outcome": "inactive"}, {"molecule": "COC(=O)c1ccc2nc(C[C@@H]3C[C@@H](C(C)C)[C@H](CNC(=O)CCCC(=O)O)C=C3C)[nH]c2c1", "activity change, negative = cytotoxicity": "inactive: -7.14%"}, {"molecule": "O=C(CCc1conc1-c1cccc(F)c1)NCc1cccc(Cl)c1", "Potency": "inconclusive: 50.1 µM [inhibitor, partial curve, poor fit]"}, {"molecule": "O=C(c1nc2cccnc2n(Cc2ccccc2)c1=O)N1CCC(c2ccccc2)CC1", "Potency": "inconclusive: 50.1 µM [inhibitor, partial curve, poor fit]"}, {"molecule": "CC(C)(C)c1ccc(C(=O)Nc2ccc(C(O)[C@H]3COCC(=O)N3Cc3ccccc3)cc2)cc1", "note": "(stereo not given in full)", "Potency": "active: 22.4 µM"}, {"molecule": "O=C(C1CN(c2ccccc2)C(=O)N1)N1CCC(Cc2ccccc2)CC1", "note": "(stereo not given)", "Potency": "inconclusive: 35.5 µM [inhibitor, partial curve, poor fit]"}, {"molecule": "CN1c2cc(C(=O)N3CCN(c4ccccc4F)CC3)ccc2C(=O)N2CCCCC21", "note": "(stereo not given)", "activity change, negative = cytotoxicity": "inactive: -15.3%"}, {"molecule": "O=C(c1ccco1)N1CCC(O)(c2ccccc2)[C@H](N2CCCC2)C1", "note": "(stereo not given in full)", "Potency": "inconclusive: 70.8 µM [inhibitor, single point]"}, {"molecule": "O=C(c1ccco1)N1CCN(c2ncncc2-c2nc(-c3ccccc3)no2)CC1", "Potency": "inconclusive: 50.1 µM [inhibitor, partial curve, poor fit]"}, {"molecule": "O=C(Cc1ccccc1Cl)NC1CCN(c2cc(-c3ccccc3)[nH]n2)C1", "note": "(stereo not given)", "Potency": "inconclusive: 5.01 µM [inhibitor, full curve, poor fit]"}, {"molecule": "Cc1ccccc1CNC(=O)CC1CCCN(c2cnn(CC3CC3)c(=O)c2)C1", "note": "(stereo not given)", "Potency": "inconclusive: 50.1 µM [inhibitor, partial curve, poor fit]"}, {"molecule": "Cc1noc(C)c1[S+](=O)([O-])N1CCC(C(=O)N2CCC(N3CCCC3=O)CC2)CC1", "activity change, negative = cytotoxicity": "inactive: -20.7%"}, {"molecule": "CN(C)C(=O)N1CCN(Cc2ccccc2-c2cccnc2)CC1", "activity change, negative = cytotoxicity": "inactive: -25.3% [at 138 µM]"}, {"molecule": "CNC(=O)c1cc(C2CC2)nc2onc(C3CCN([S+](=O)([O-])c4cccc(C(F)(F)F)c4)C3)c12", "note": "(stereo not given)", "Potency": "inconclusive: 39.8 µM [inhibitor, partial curve, poor fit]"}, {"molecule": "Cc1ccccc1N(C)C1CN([S+](=O)([O-])c2cccs2)C1", "Potency": "inconclusive: 79.4 µM [inhibitor, partial curve]"}]}]}
